Measured values as given in PubChem BioAssay AID889 (National Center for Advancing Translational Sciences (NCATS), 2007).
Among all 75,000 compounds or so, about 15 (0.02%) were called active. Inconclusive results, whose numbers are uncertain, are shown with a selection of clear calls. Calls follow the shape of the dose curve; as a rule, active = well fitted inhibition curve with a large enough effect in the main read-out, with a control signal flat (not every such curve was filed as active); inconclusive = small, poorly fitted or top-dose-only effect, or a change in a side signal; inactive = flat fitted curve, though single readings scatter. Potencies beside an inconclusive call are fits to weak or partial responses and may not hold up. A note “side channel” means that the fit belongs to a control or component signal, not to the main read-out.

target: Caspase-7 (Homo sapiens) (UniProt P55210); assay: qHTS Assay for Allosteric/Competitive Inhibitors of Caspase-7; conditions: recombinant caspase-7, Ac-DEVD-AFC fluorescence rate; activity change, negative = inhibition: at 57.5 µM (top of the series) unless noted; as to activity change, negative = inhibition: % of control where 0% means no effect
Potency is read from the fitted curve at half-maximal effect; tags tell the direction and shape of the fitted curve or compound fluorescence and quenching.

UniProt P55210, sequence (P55210 whole entry, looked up): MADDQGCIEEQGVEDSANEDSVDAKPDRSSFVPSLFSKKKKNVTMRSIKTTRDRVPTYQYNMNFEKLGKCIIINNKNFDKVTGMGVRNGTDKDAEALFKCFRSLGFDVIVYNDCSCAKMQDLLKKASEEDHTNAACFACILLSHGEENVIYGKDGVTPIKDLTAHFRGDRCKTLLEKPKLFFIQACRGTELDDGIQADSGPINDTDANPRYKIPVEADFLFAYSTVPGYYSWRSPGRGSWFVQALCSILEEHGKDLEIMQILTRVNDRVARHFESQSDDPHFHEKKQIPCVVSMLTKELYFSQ

Compound | Potency | activity change, negative = inhibition
O=c1c(-c2ccc(F)cc2)nc2cnc(N3CCOCC3)nc2n1C[C@H]1CCCO1 | inconclusive: 3.16 µM [fluorescent, full curve] | –
COCCn1c(=O)c(-c2cccs2)nc2cnc(Oc3cccc(Cl)c3)nc21 | inconclusive: 7.94 µM [fluorescent, side channel, partial curve] | –
Cc1ccc(-c2[nH]nc3c2C(c2cccnc2)C(C#N)=C(N)O3)cc1 (stereo not drawn) | – | inactive: 1.81%
Cc1ccc(C)c(N2CCN(C(=O)CCS(=O)(=O)c3cccc4nonc34)CC2)c1 | – | inactive: -4.99%
CC(C)(C)c1ccc(OCC2CO2)cc1 (stereo not drawn) | – | inactive: -0.836%
CN1CCN(c2ncc3ncc(=O)n(-c4ccccc4)c3n2)CC1 | inconclusive: 25.1 µM [inhibitor, partial curve] | –
Cc1ccc(-c2nc(-c3nccc4ccccc34)oc2-c2ccccc2)cc1 | inconclusive: 3.16 µM [fluorescent, side channel, single point] | –
COC(=O)c1cc(NC2c3ncccc3C(=O)N2Cc2ccccc2)cc(C(=O)OC)c1 (stereo not drawn) | inconclusive: 25.1 µM [inhibitor, single point] | –
CCC(C)(C)n1nnnc1C(C(C)C)N1CCSCC1 (stereo not drawn) | – | inactive: -3.22%
O=C(CN1C(=O)c2cccc3cccc1c23)N1CCN(Cc2ccc3c(c2)OCO3)CC1 | inconclusive: 25.1 µM [fluorescent, side channel, single point] | –
CC(C)Cn1c(N)c(C(=O)NCCN2CCOCC2)c2nc3ccccc3nc21 | inconclusive: 10 µM [fluorescent, side channel, partial curve] | –
Cc1cc(C)c2nc(N3CCCN(C(=O)c4ccco4)CC3)c(C#N)cc2c1 | inconclusive: 25.1 µM [fluorescent, side channel, partial curve] | –
COc1cccc(Cn2c(=O)c(-c3ccc(F)cc3)nc3cnc(N4CCNCC4)nc32)c1 | inconclusive: 15.8 µM [fluorescent, side channel, partial curve] | –
COc1ccc(-n2c(=O)c(-c3cn(C)c4ccccc34)nc3cnc(N4CCOCC4)nc32)cc1 | inconclusive: 1.58 µM [fluorescent, partial curve] | –
N[C@@](CC(=O)O)(Cc1ccccc1)C(=O)O | – | inactive: 2.38% [at 11.5 µM]
CC1=C(C(=O)O)N2C(=O)[C@@H](NC(=O)[C@@H](N)c3ccc(O)cc3)[C@@H]2SC1 | – | inactive: -0.0171% [at 25.7 µM]
COc1cccc(NC(=O)Cn2c(SCC(=O)N3CCOCC3)nc3ccccc32)c1 | – | inactive: 0.118%
Cc1cc(C)c2cc(CN(Cc3ccc4c(c3)OCO4)Cc3nnnn3Cc3ccco3)c(=O)[nH]c2c1 | inconclusive: 25.1 µM [inhibitor, single point] | –
COc1ccc(N2CSC3=C(C#N)C(c4ccc(OC)c(OC)c4)CC(=O)N3C2)c(OC)c1 (stereo not drawn) | inconclusive: 25.1 µM [inhibitor, single point] | –
Cc1ccc2nc3ccc(N4CCCC4)nn3c(=O)c2c1 | inconclusive: 31.6 µM [inhibitor, single point] | –
CCC(c1nnnn1CCOC)N(Cc1ccc(C)cc1)Cc1cc2cc(OC)ccc2[nH]c1=O (stereo not drawn) | inconclusive: 39.8 µM [fluorescent, side channel, single point] | –

Compound | Potency | activity change, negative = inhibition
CCCCN(C(=O)NC(=O)C1=C(N2CCOCC2)/C(=C/c2ccccc2)CC1)S(C)(=O)=O | inconclusive: 31.6 µM [fluorescent, side channel, single point] | –
CCOC(=O)CCCCCCCCCCCCC1C=CCC1 (stereo not drawn) | – | inactive: 0.578%
CCN(C)c1ccc(/C=N\n2nnnc2N)cc1 | inconclusive: 15.8 µM [fluorescent, partial curve] | –
Cc1c2c(n3c(nc4ccccc43)c1C#N)N(Cc1cccnc1)CC2 | inconclusive: 15.8 µM [fluorescent, partial curve] | –
COc1ccc(OC)c(NC(=O)NC2(C(F)(F)F)Oc3ccccc3O2)c1 | – | inactive: 1.35%
COCCn1c(=O)c(-c2cccs2)nc2cnc(N3CCOCC3)nc21 | inconclusive: 1 µM [fluorescent, side channel, full curve] | –
CC(C)(C)NC(=O)Nc1ccc2nccnc2c1 | inconclusive: 25.1 µM [fluorescent, partial curve] | –
COC(=O)c1[nH]c2ccc(C)cc2c1NC(=O)CN1CCN(Cc2ccccc2)CC1 | inconclusive: 25.1 µM [inhibitor, single point] | –
CCn1c(=N)n(CC(=O)OC)c2ccccc21 | – | inactive: -1.55%
C=CCn1c(N)c(C(=O)OCC(C)C)c2nc3ccccc3nc21 | inconclusive: 15.8 µM [fluorescent, partial curve] | –
CN(C)c1ncc2nc(-c3cccs3)c(=O)n(C[C@H]3CCCO3)c2n1 | inconclusive: 2 µM [fluorescent, side channel, full curve] | –
CCOCCCn1c(=N)c(C(=O)NCc2ccc3c(c2)OCO3)cc2c(=O)n3cccc(C)c3nc21 | inconclusive: 25.1 µM [inhibitor, single point] | –
CN(C)c1nc(-c2ccccc2C(F)(F)F)nc2ccccc12 | – | inactive: -4.99%
O=C1Nc2ccc(S(=O)(=O)N3CCCC3C(=O)O)c3cccc1c23 (stereo not drawn) | inconclusive: 25.1 µM [inhibitor, single point] | –
CCOC(=O)c1c(NC(=O)c2ccc(-n3cnnn3)cc2)sc2c1CCCC2 | inconclusive: 3.16 µM [inhibitor, partial curve] | –
CCS(=O)(=O)NCc1ccc2[nH]c3c(c2c1)CCCC3 | inconclusive: 15.8 µM [fluorescent, partial curve] | –
Cc1ccc2nc(NCCCN3CCOCC3)c(C=NCCCN3CCOCC3)c(=O)n2c1 | inconclusive: 31.6 µM [inhibitor, single point] | –
Oc1c(CN2CCN(c3ccccn3)CC2)cc(Cl)c2cccnc12 | – | inactive: -8.89%
CCOC(=O)CC(=O)CSc1nc(-c2cccnc2)ccc1C#N | inconclusive: 20 µM [fluorescent, side channel, partial curve] | –
COc1cccc(Nc2ncc3nc(-c4cc(F)cc(F)c4)c(=O)n(CCC#N)c3n2)c1 | inconclusive: 15.8 µM [fluorescent, partial curve] | –
CCc1c(C(=O)Nc2nnc(C3CC3)s2)csc1C | – | inactive: -0.256%

Compound | Potency | activity change, negative = inhibition
COc1ccc(Oc2ncc3nc(-c4ccc(OC)cc4)c(=O)n(CCC#N)c3n2)cc1 | inconclusive: 20 µM [fluorescent, partial curve] | –
CC1=C(C(=O)Nc2ccccc2)C(c2ccc(C)o2)n2c(s/c(=C\c3ccco3)c2=O)=N1 (stereo not drawn) | – | inactive: -23.5%
CN1/C(=N\O)c2cccc3cccc1c23 | inconclusive: 12.6 µM [fluorescent, side channel, partial curve] | –
CC1CN(CC(=O)N2CCc3[nH]c4ccccc4c3C2)CC(C)O1 (stereo not drawn) | inconclusive: 15.8 µM [fluorescent, side channel, partial curve] | –
CCOC(=O)CCN1C(=O)[C@@H]2[C@H]3C(=CC[C@H]2C1=O)C(=O)[C@H]1O[C@H]1[C@H]3O | inconclusive: 3.98 µM [inhibitor, single point] | –
CCCCn1c(SCC(=O)NCc2ccccc2)nc2ccc(N3CCOCC3)cc2c1=O | inconclusive: 31.6 µM [inhibitor, single point] | –
CCN1C2=C(C(=O)CCC2)C(c2ccc(O)cc2)C2=C1CCCC2=O | inconclusive: 25.1 µM [inhibitor, single point] | –
O=C(CN1c2cccc3cccc(c23)S1(=O)=O)N1CCOCC1 | inconclusive: 3.16 µM [fluorescent, side channel, full curve] | –
Cc1cccc(C)c1NC(=O)CSCCO | – | inconclusive: -56.2% [inhibitor] [at 0.00368 µM]
COc1cccc(-c2cc(C(F)(F)F)n3ncc(C(=O)NCC4CCCO4)c3n2)c1 (stereo not drawn) | inconclusive: 31.6 µM [inhibitor, single point] | –
CCCCn1c(SCC(=O)NCC2CCCO2)nc2ccc(N3CCOCC3)cc2c1=O (stereo not drawn) | inconclusive: 25.1 µM [fluorescent, partial curve] | –
COc1ccc(-n2c(=O)c(-c3ccc(Cl)cc3)nc3cnc(N4CCNCC4)nc32)cc1 | inconclusive: 20 µM [fluorescent, side channel, partial curve] | –
COc1ccc(C(CNC(=O)c2cc(C)oc2C)N2CCOCC2)cc1 (stereo not drawn) | – | inactive: -4.8%
CN(C)c1ccc(/C=N/n2ncc3ccccc32)cc1 | inconclusive: 25.1 µM [fluorescent, side channel, partial curve] | –
Cc1ccc(C2NC(=O)c3c(sc4c3CCN(C)C4)N2)s1 (stereo not drawn) | inconclusive: 15.8 µM [fluorescent, side channel, partial curve] | –
CN(C)c1ncc2nc(-c3ccc(Cl)cc3)c(=O)n(Cc3cccs3)c2n1 | inconclusive: 2 µM [fluorescent, full curve] | –
CN1CCN(c2ccnc(-c3ccc(N(C)C)cc3)n2)CC1 | inconclusive: 25.1 µM [fluorescent, partial curve] | –
O=c1oc2c(CN3CCOCC3)c(O)ccc2c2c1CCCC2 | inconclusive: 25.1 µM [fluorescent, partial curve] | –
Nc1cccc(-c2nc3ccc(N)cc3s2)c1 | inconclusive: 15.8 µM [fluorescent, side channel, partial curve] | –
CC(C)=CCC/C(C)=C/CO | inactive | –
CC1=CC(c2ccccc2)n2nc(NS(=O)(=O)c3ccc(C)cc3)nc2N1 (stereo not drawn) | inconclusive: 25.1 µM [fluorescent, partial curve] | –
